Experimental findings from PubChem BioAssay AID1347073 (National Center for Advancing Translational Sciences (NCATS), 2019) are described below.

The whole screen tested about 45,000 compounds, of which about 200 (0.44%) were called active. Another 7% or so got no clear call; they are omitted. Calls follow the shape of the dose curve; as a rule, active = well fitted activation curve with a large enough effect; inconclusive = small, poorly fitted or top-dose-only effect; inactive = no such curve, though single readings can be large or run the other way. The list shows a part of the results.

This assay is described as follows: qHTS of TDP-43 Inhibitors: NCGC Sytravon Library Screen. Also: 0% is about no effect; nearly all actives have a fitted effect of over 55% in size. As to conditions: yeast TDP-43 toxicity rescue, BacTiter-Glo growth, 24 h; series mostly up to 46.1 µM; growth rescue (activation): at the top concentration. Put shortly:
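TDP-43-expressing yeast, pregrown in raffinose, seeded at OD600 0.02 in galactose medium with compound for 24 hr at 30 deg C. Growth read by BacTiter-Glo luminescence, so rescue of toxicity appears as activation.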
(In general: Quantitative high-throughput screening tests each substance at several concentrations.)
On to `CCOc1nc2ccccc2cc1/C=C/C(=O)O`, for which the “growth rescue (activation)” value is inactive: 4.97%.

Regarding `CN(CC(=O)Nc1ccc(C(N)=O)cc1)S(=O)(=O)c1ccc2c(c1)OCCO2`, the “growth rescue (activation)” value is inactive: -2.16%.

For the compound `COc1cccc(-c2nc3ccccc3s2)c1O`, the “growth rescue (activation)” value was inactive: 3.67%.

As for `O=C(NCC1CCCO1)c1ccc2[nH]c3c(c2c1)CCCC3` (centres undefined), the “growth rescue (activation)” value is inactive: 25.9%.

With `COc1ccc(/C(N)=N/O)c(OC)c1`, the “growth rescue (activation)” value was inactive: -7.78%.

With `CC1CN(CC(=O)Nc2ccc([N+](=O)[O-])cc2Br)CC(C)O1` (centres undefined), the “growth rescue (activation)” value is inactive: -5.75%.

For `O=[N+]([O-])c1ccc(NCc2ccc3c(c2)OCO3)cc1`, the “growth rescue (activation)” value is inactive: 19.3%.

With `Cc1cccc(Nc2nnc(SCC(=O)Nc3cccc(S(=O)(=O)N4CCCCC4)c3)s2)c1`, the “growth rescue (activation)” value was inactive: 11.3%.

Consider `CCCc1nnc(NC(=O)COc2ccc3c(c2)OCO3)s1`, for which the “growth rescue (activation)” value was inactive: 10.9%.

With `COc1cc(N/N=C(\C)c2ccc(O)c(C)c2)nc(-c2ccccc2)n1`, the “growth rescue (activation)” value was inactive: 19.4%.

For `C=C(C)Cn1c(SCC(=O)N/N=C/c2ccccc2)nc2ccccc2c1=O`, the “growth rescue (activation)” value is inactive: -5.63%.

Take `Nc1nonc1-n1nnc(C(=O)N/N=C/c2ccc(Cl)cc2Cl)c1CN1CCOCC1`: the “growth rescue (activation)” value is inactive: 2.08%.

On to `COc1ccc(OC)c(NC(=O)C2CC(=O)N(CCc3ccc(F)cc3)C2)c1` (centres undefined), for which the “growth rescue (activation)” value was inactive: 4.65%.

For the compound `COc1ccc(C(=O)NC2CCCCC2)cc1OC1CCN(C(C)C)CC1`, the “growth rescue (activation)” value was inactive: 3.78%.

`CC(C)n1cc(CN2CCCC(C(=O)Nc3ccccc3Oc3cccnc3)C2)cn1` (centres undefined): the “growth rescue (activation)” value is inactive: -21.6%.

Take `COc1ccc(C2(C(=O)Nc3ccc(C)c(C)c3)CCOCC2)cc1`: the “growth rescue (activation)” value was inactive: -13.5%.

As for `Cc1ccc(CN2CCNC(=O)C2CC(=O)NCCCn2cccn2)o1` (centres undefined), the “growth rescue (activation)” value was inactive: 14%.

In the case of `O=c1c(-c2ccco2)[n+]([O-])c2ccccc2n1OCc1ccccc1[N+](=O)[O-]`, the “growth rescue (activation)” value is inactive: -8.61%.

For `CC(=O)N/C(=C\c1ccccc1)C(=O)OCc1cc(C)ccc1C`, the “growth rescue (activation)” value is inactive: 3.26%.

For the compound `N#Cc1ccc(OCC(O)CN2CCN(c3ncc(C(F)(F)F)cc3Cl)CC2)cc1` (centres undefined), the “growth rescue (activation)” value is inactive: 6.74%.

`COc1ccc(Cl)cc1NC(=O)CN1C(=O)CCS(=O)(=O)c2ccccc21`: the “growth rescue (activation)” value was inactive: 15.3%.

For `COc1ccc(C(=O)NCCc2c[nH]c3ccccc23)cc1OC`, the “growth rescue (activation)” value was inactive: -0.607%.

For `O=C(Cn1cnc2ccccc2c1=O)N1CCc2ccccc2C1`, the “growth rescue (activation)” value was inactive: -0.171%.

In the case of `Cc1[nH]c(=O)[nH]c(=O)c1S(=O)(=O)N1CCCC(C(=O)NCCC2=CCCCC2)C1` (centres undefined), the “growth rescue (activation)” value is inactive: 9.23%.

For the compound `CCOC(=O)CC1CCCCN1C(=O)CCCn1nnnc1CN1CCC(C)CC1` (centres undefined), the “growth rescue (activation)” value is inactive: -6.84%.

Take `CC(=O)Nc1ccc(S(=O)(=O)NCC(=O)NCCCc2ccccc2)cc1`: the “growth rescue (activation)” value is inactive: 8.07%.

Take `Cc1ccccc1N(CC(=O)NC1CCCCC1)C(=O)CCC(=O)Nc1nccs1`: the “growth rescue (activation)” value was inactive: 14.4%.

For the compound `Cc1ccc(/C=N/NC(=O)NC2CCCCC2)o1`, the “growth rescue (activation)” value is inactive: 10.6%.

For the compound `CCOC(=O)C1(CCc2ccccc2)CCN(Cc2cnc(N(C)C)s2)CC1`, the “growth rescue (activation)” value is inactive: 7.23%.

Turning to `COc1ccc(CC(=O)NCc2nnc(SCC(=O)c3ccc(OC)cc3)n2C)cc1`, the “growth rescue (activation)” value was inactive: -2.05%.

Turning to `O=C1NC(=O)/C(=C\c2ccc(N3CCOCC3)o2)N1`, the “growth rescue (activation)” value was inactive: -9.82%.

As for `N=c1c2c3c(sc2ncn1Cc1ccccc1)CCCC3`, the “growth rescue (activation)” value was inactive: 3.92%.

Turning to `CCC(=O)Nc1ccc(NC(=S)Nc2ccccc2)cc1`, the “growth rescue (activation)” value is inactive: 17.3%.

Consider `COCCn1c(=N)c(C(=O)NCc2ccco2)cc2c(=O)n3cc(C)ccc3nc21`, for which the “growth rescue (activation)” value was inactive: 3.56%.

As to `CC(=O)N1C(=O)NC2=C(C(=O)CCC2)C1c1cccc([N+](=O)[O-])c1` (centres undefined), the “growth rescue (activation)” value was inactive: 13.5%.

For `O=C(CSc1nnc(-c2cccnc2)o1)N1CCCCC1`, the “growth rescue (activation)” value is inactive: 1.86%.

In the case of `CCN1CSC(=S)N(Cc2ccccc2)C1`, the “growth rescue (activation)” value was inactive: -13.2%.

`CC(C)N(CCNC(=O)c1oc(=O)c2ccccc2c1-c1ccccc1)Cc1ccco1`: the “growth rescue (activation)” value is inactive: 15.6%.

Turning to `O=C(COC(=O)[C@@H]1CCCN1S(=O)(=O)c1ccccc1F)c1ccccc1`, the “growth rescue (activation)” value is inactive: 19.5%.

In the case of `Cc1ccnc(SCC(=O)c2cccs2)n1`, the “growth rescue (activation)” value was inactive: -4.63%.

On to `CCCOP(=O)(c1ccc(N(C)C)cc1)C(O)c1ccc(N(C)C)cc1` (centres undefined), for which the “growth rescue (activation)” value is inactive: -12.3%.

`CC(C)Oc1ccc(CN2CCC2(C)C(=O)NCc2cccc3ccccc23)cc1` (centres undefined): the “growth rescue (activation)” value is inactive: 10.6%.

In the case of `CCOC(=O)CC(NS(=O)(=O)c1ccc(OC)c(OC)c1)c1cccc([N+](=O)[O-])c1` (centres undefined), the “growth rescue (activation)” value is inactive: 18.5%.

As for `CCOC(=O)c1c(NC(C)=O)c2c3c(sc2n1Cc1nc(-c2cccc(C)c2)oc1C)CCCC3`, the “growth rescue (activation)” value was inactive: 13.8%.

Consider `COc1cccc(NC(=O)NCCc2ccc(Cl)cc2)c1`, for which the “growth rescue (activation)” value is inactive: 23.8%.

Take `COc1ccc(NC(=O)CSc2n[nH]c(=O)n2Cc2ccccc2)cc1Cl`: the “growth rescue (activation)” value was inactive: 16.9%.

As for `CSCC(=O)N1CCCC(CNC(=O)c2ccccc2Cl)C1` (centres undefined), the “growth rescue (activation)” value was inactive: -17%.

Take `O=C(Nc1ccc(S(=O)(=O)N2CCOCC2)cc1)c1c(F)cccc1F`: the “growth rescue (activation)” value is inactive: 6.14%.

Turning to `COc1ccc(CCC(=O)N2CCCC(Nc3ccccc3)C2)cc1OC` (centres undefined), the “growth rescue (activation)” value is inactive: 9.61%.

As for `CCN(CC)S(=O)(=O)c1ccc2c(c1)N(CC(=O)N(CCc1ccncc1)C(C)C)C(=O)CO2`, the “growth rescue (activation)” value was inactive: 9.42%.

Regarding `CN(Cc1ccon1)C(=O)CCc1nnc(Cc2ccc(-c3ccccc3)cc2)o1`, the “growth rescue (activation)” value was inactive: 10.9%.

Regarding `COC(=O)c1ccc(OC(=O)c2ccco2)cc1`, the “growth rescue (activation)” value is inactive: 12.1%.

Turning to `S=C(NCc1ccco1)N1CCN(C/C=C/c2ccccc2)CC1`, the “growth rescue (activation)” value was inactive: 4.85%.

For the compound `COc1ccc(N(C)C(=O)c2cc(S(=O)(=O)N3CCc4ccccc43)cn2C)c(OC)c1`, the “growth rescue (activation)” value was inactive: 2.88%.

Consider `CC(=O)N1CCN(S(=O)(=O)c2ccc(C)cc2)C1C` (centres undefined), for which the “growth rescue (activation)” value was inactive: 28.4%.

Take `O=C(/C=C/c1cccs1)Nc1ccc([N+](=O)[O-])cc1`: the “growth rescue (activation)” value is inactive: 14.9%.

Take `COCCNC(=O)C(c1ccccc1F)N(C(=O)C(=O)NC1CCCC1)C1CCCCC1` (centres undefined): the “growth rescue (activation)” value was inactive: 2.91%.

Take `C=CCN(C)NC(=O)Nc1ccccc1`: the “growth rescue (activation)” value is inactive: 1.89%.

Turning to `Cc1ccc(Cl)cc1NC(=O)CCS(=O)(=O)c1ccc2c(c1)n(C)c(=O)c(=O)n2C`, the “growth rescue (activation)” value was inactive: -9.98%.

With `CC(=O)Nc1ccc(N2CCCC(C)C2)c([N+](=O)[O-])c1` (centres undefined), the “growth rescue (activation)” value is inactive: 7.1%.

Regarding `S=C(NCC1CCCO1)Nc1ccccc1` (centres undefined), the “growth rescue (activation)” value was inactive: 3.16%.

With `Cc1cc(C)c(C#N)c(SCCN2CCCCC2)n1`, the “growth rescue (activation)” value was inactive: 4.52%.

Regarding `O=Cc1cn(-c2ccccc2)nc1-c1cc2ccccc2oc1=O`, the “growth rescue (activation)” value was inactive: 1.02%.

As to `COC(=O)CCN(C(=O)C12CC3CC(CC(C3)C1)C2)c1ccccn1`, the “growth rescue (activation)” value is inactive: 22.6%.

For the compound `COCCNC(=O)C(c1ccc(OC)cc1)N(Cc1ccco1)C(=O)CCC(=O)Nc1ccccn1` (centres undefined), the “growth rescue (activation)” value is inactive: 3.08%.

For the compound `CN(CCO)S(=O)(=O)c1ccc2c(c1)C(=NO)c1cc(S(=O)(=O)N(C)CCO)ccc1-2`, the “growth rescue (activation)” value is inactive: 1.5%.

In the case of `Cc1ccc(OCCC(=O)OCC(=O)Nc2cc(S(=O)(=O)N(C)C)ccc2C)cc1`, the “growth rescue (activation)” value is inactive: 13.5%.

For `CC(C)N1CCN(S(=O)(=O)c2ccccc2)CC1`, the “growth rescue (activation)” value is inactive: -14.3%.

As to `Nc1ccccc1SCC(=O)Nc1cccc2ccccc12`, the “growth rescue (activation)” value is inactive: 23.7%.
